Test results reported in the supplement of paper PMC11417369.
± gives the standard deviation of the averaged measurements. The list shows a part of the results.

System: PfAP2-I AP2 domain 3 (GST-tagged)
Assay: gcPBM binding intensity (ln(normalized median fluorescence intensity)); higher = stronger DNA binding
Outline: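 Probes on an Agilent 4 × 180k array were primer-extended, double-stranded and 36 bp long, taken from intergenic genomic regions, with negative controls added. GST-tagged P. falciparum DNA-binding domains from E. coli, about 25 μg on average, were applied to the array for 1 h in 1× PBS containing 1% milk, 0.2 mg/ml BSA, 0.5% salmon testes DNA and 0.03% Triton X-100. Binding intensity, obtained after Alexa488 anti-GST antibody detection and a 488 nm scan, is the highest Masliner-normalised natural-log median intensity across replicate spots of either probe orientation.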

| Sequence | gcPBM binding intensity (ln) |
| --- | --- |
| TATATTAGAAAGGATACACACATATATAAATATCTA [CACACA_site6411] | 7.36 ± 0.57 |
| TTGTTTGTAAACAGATGTACATATAAAAATATATAT [XGTACX_site3370] | 8.01 ± 0.24 |
| TATGAACACCCAAATACACACACTCAAAAAAAAAAA [CACACA_site5466] | 8.15 ± 0.52 |
| AAAATGTTTTTATCCAGTACATAAATATATATATAT [XGTACX_site7398] | 9.15 ± 0.26 |
| TCAGATCCATAGAAGGTGCAAATAACAAAAATACAA [GTGCAC_site9610] | 11 ± 0.43 |
| TAATTTTTCTTATATAGTACACAAAAAGAAAATTAC [XGTACX_site6393] | 8.03 ± 0.18 |
| TTCCCTATATAGAGCATGCACTATATTCAAATGATG | 8.49 ± 0.61 |
| TTAGATATAAAAGCATGTACTTGTATAAAATATATA [XGTACX_site8272] | 7.6 ± 0.47 |
| TTATCAAATGAGTGTTGTACGTCTTTTGAAATACCA [XGTACX_site8804] | 7.89 ± 0.38 |
| GAAAAATTGAATTTGGGTACATATAAATATTATATT [XGTACX_site2363] | 7.46 ± 0.64 |
| ATAAATATTAGCAGTTGTACAATAAATATATGTAAT [XGTACX_site2534] | 7.91 ± 0.5 |
| CATTTTATTTTCTTTGTGCACAAAAATATTTTTTCT | 11.13 ± 0.092 |
| TTGTAACAAAAGTACACACACATTTCTATAAATTTT [CACACA_site2772] | 7.91 ± 0.33 |
| TTTATATACTATCAACGTACAAAAGTAATAAAAATA [XGTACX_site4343] | 7.68 ± 0.39 |
| GGATTTTACCATAGCACACATATATGAATATTTTTC [CACACA_site1814] | 8.14 ± 0.71 |
| TGTTCTAATTTTAATTGTACATATATACATATATAT [XGTACX_site7290] | 7.67 ± 0.3 |
| AAAGTTATGATATATACACACATATAAATATTAAAT [CACACA_site6361] | 7.82 ± 0.64 |
| GTAAATATATATATATATATATATATATATATATAT [GTGCAC_negctrl_site239] | 9.45 ± 0.35 |
| AACATATAAAAATATGCACACACAGGAATACAAACA [CACACA_site8127] | 8.79 ± 0.61 |
| TTCTGTATACGGTGTGCACACAATTAAAAAAAAAAA [CACACA_site1416] | 9.735 ± 0.007 |
| TTAAATAACCTCAAGGATAAGAAAAAATTAAAAATT [CACACA_negctrl_site1336] | 7.5 ± 0.84 |
| GAAATAATAAAATCGACACACAAAAAAAAAAAAAAA [CACACA_site3476] | 8.2 ± 0.54 |
| CTATTTAAAATTTGAACACACATTATTTATTTTAAA [CACACA_site3114] | 7.62 ± 0.45 |

| Sequence | gcPBM binding intensity (ln) |
| --- | --- |
| CTTTATATATATTGCGTGCACATTTTTTTTTTTTTT | 10.1 ± 0.59 |
| TCAATATATATAAGAAGTACATGTGAATGAAAAAAA [XGTACX_site1674] | 8.11 ± 0.57 |
| AATAAATACAAAAATGTACACACATATATATATTTT [CACACA_site9167] | 7.88 ± 0.19 |
| AAAAAAAAAAAACATACACACACACTAATATTTATA [CACACA_site8038] | 7.58 ± 0.29 |
| GACTTTTTCATTTTTAGTACACATATATATTTCCCT [XGTACX_site3511] | 8.62 ± 0.52 |
| ATATATTTTTAATATGCACACAAGAATACATTCACA [CACACA_site914] | 9.195 ± 0.007 |
| TTAAAAAATCACAACACACACACACCCAAAAAAAAA [CACACA_site1445] | 8.43 ± 0.29 |
| TTTTAAAAAATATAATAATATAAATATTTTATACGT [TGCATGCA_negctrl_site252] | 7.29 ± 0.4 |
| CATATATATATATGAACACACAAAAAGAATATTTCC [CACACA_site1493] | 7.62 ± 0.63 |
| TTCTATGCATTTATAGTGCATGTAAAATATAAGATA [GTGCAC_site9466] | 10.2 |
| AATTATATTTAGTATATGCACACTTTATGTTTGTTA [CACACA_site2025] | 9.21 ± 0.028 |
| GTAGAAAGAAAAATTAGTACTTAAATATTATAAAAA [XGTACX_site8458] | 7.71 ± 0.62 |
| TCTATACCTATTCTTACACACATATGTATTTATATA [CACACA_site4475] | 8.08 ± 0.72 |
| TTTAAAAAAAAAAAAAATTTTTTTTTTTTTTTTTTA [CACACA_negctrl_site1415] | 7.33 ± 0.45 |
| AAAAAATACCAAAGGGGTACTTACACATAATACTTA [XGTACX_site2111] | 7.55 ± 0.58 |
| CTTTTTACTTAATACACACACACACCCAAAAAAAAA [CACACA_site948] | 8.53 ± 0.15 |
| CATCAAAATGAAGCATGTACATAATATAAATAAATA [XGTACX_site4647] | 7.79 ± 0.45 |
| ATTGAAGGGAAATATATAATCATATTCAAAATAAAA [CACACA_negctrl_site728] | 7.55 ± 0.79 |
| ATTTCTCTATCGTAATGTACAAAAAAAAGGGAAAAG [XGTACX_site1335] | 7.96 ± 0.52 |
| CTAATCATAAAATATACACACACGGATACATTAAAT [CACACA_site2685] | 7.89 ± 0.69 |
| TTTATACTTTCAAAATGTACATATATATATATATAT [XGTACX_site6241] | 9.47 ± 0.36 |
| TAATATATAATTTTATGTACATAATTATAAACCCAT [XGTACX_site919] | 8.09 ± 0.33 |
| AAGGAATAAAATTTAGAAGACAATTTTATTTCAGTA [XGTACX_negctrl_site331] | 7.3 ± 0.51 |

| Sequence | gcPBM binding intensity (ln) |
| --- | --- |
| GGTATTTTCACATATAGTACACAAAAATAAAATAAA [XGTACX_site2139] | 8.48 ± 0.099 |
| TTTTTTTTTTTTTTTTTTTTTTTCTACCTATTTATT [CACACA_negctrl_site94] | 8.2 ± 0.73 |
| TTGTATAAAATATGTAGTACAATAATATAACATTTT [XGTACX_site8607] | 7.99 ± 0.18 |
| TATGTATATTGAGATTGTACTTGTAATATTAAACAT [XGTACX_site3878] | 7.71 ± 0.61 |
| AATAATAAAAATATTGTGCACTTGTATATTTATTAT [GTGCAC_site9963] | 11 ± 0.11 |
| AAGTTATACACATCAACACACACATACAACGTGGTG [CACACA_site8312] | 7.8 ± 0.55 |
| TAAACACATTATATATGTACATAATAAAAAAAAAAA [XGTACX_site7907] | 8.04 ± 0.53 |
| ATAAAATACAAAGGGACACACATATGAGTCTACAAA [CACACA_site3092] | 7.54 ± 0.6 |
| ATTTATTTATTTTCATGTACATATGTAAATCAATAA [XGTACX_site3886] | 7.77 ± 0.44 |
| TATATAATATAATGTAGTACATGTTTTATTTTTTAC [XGTACX_site7735] | 7.76 ± 0.29 |
| ATATTAACTTTTATTACACACTCTCAACTTTTATTT [CACACA_site6176] | 8.19 ± 0.68 |
| TCACAAATGTATTATACACACAAGTTTTCTTTAATA [CACACA_site4107] | 7.83 ± 0.42 |
| AATAAAAATAACCTAACATGCAAAAAAAAAAAAAAA [TGCATGCA_site718] | 8.01 ± 0.69 |
| TGAATGCTTTTATGCACACGTACAAAAATATTATAT [CACACA_site2668] | 9.8 ± 0.42 |
| GTCATTAAAAAAATATGTACTTAAATGTATGCATAT [XGTACX_site5951] | 7.79 ± 0.44 |
| TATATATTATATATATGTACTTATTTATTAATTTAT [XGTACX_site5253] | 7.54 ± 0.24 |
| TGTTGTTATAAAAAAAAAAAAAAAAAAAAAAAAAAA [GTGCAC_negctrl_site230] | 8.16 ± 0.67 |
| TGTGGTTTTTATAATTGTACATATATATAAATCTAT [XGTACX_site4766] | 7.87 ± 0.21 |
| ATATAAAATAAATAAGTGCAGATAAATTTATGTGAC [GTGCAC_site9504] | 9.46 ± 0.13 |
| GGAATATAAATACATACACACATATATATATATATA [CACACA_site4998] | 9.24 ± 0.51 |
| TATAATAAATCAAATGCACACACACTAATAAAAAAA [CACACA_site7937] | 9.15 ± 0.11 |
| ATGAATATTTACAATCTTATTATGTTCAAAATTAAT [CACACA_negctrl_site592] | 7.48 ± 0.57 |
| TACATGCTTATTTTAACACACAAATGGTAGTAATAA [CACACA_site766] | 7.71 ± 0.64 |

| Sequence | gcPBM binding intensity (ln) |
| --- | --- |
| TGACGACATTTCTTATGTACTAATTTTTCTTCCTTT [XGTACX_site4391] | 7.63 ± 0.64 |
| TAAAAAAAGAAAAAAAGTACATGCTACTTTTATGAT [XGTACX_site7818] | 7.85 ± 0.48 |
| CAAAATGATATGACAACACACAACCTATAGTAAGAC [CACACA_site1287] | 8.07 ± 0.79 |
| TAATATATAATAAAGTGTACATATGCTTTATTATTA [XGTACX_site1920] | 7.75 ± 0.23 |
| ATAATTATTAATATAGTGCATTGGCATAATAATATA [GTGCAC_site9810] | 9.89 ± 0.2 |
| TTATACAACAAGAAAATTATAAAATGTAACATATAT [GTGCAC_negctrl_site406] | 7.53 ± 0.76 |
| ATATTAATATAATGTGCATGTTCAATGATCTTTTTA [TGCATGCA_site22] | 8.02 ± 0.93 |
| TTAGATATAATATATACACACCAACGAACGAAGAAA [CACACA_site4763] | 8.05 ± 0.55 |
| TATTTTTTAACACAACGTACATATAAAAAATATTTA [XGTACX_site6025] | 8.09 ± 0.31 |
| TACAAATATATATGCACACACATATATGTATATGTG [CACACA_site3075] | 9.44 ± 0.25 |
| AGTAAATAACACAAATATGAATGAAAAAAAAAATAT [GTGCAC_negctrl_site235] | 7.89 ± 0.79 |
| ATATATATATAGTACGCACACATAGTTGTACATTAA [CACACA_site2787] | 9.21 ± 0.13 |
| CGTATGAGTAAATACACACCCACGTATATATATAAA [CACACA_site5728] | 7.78 ± 0.44 |
| CAACTTATTAAAAGTCGTACAAATGGGAAGAAGGAA [XGTACX_site6325] | 8.18 ± 0.64 |
| TGTGCGGAAATAAGTGCACACATAGATATCTGTATT [CACACA_site5935] | 10.6 ± 0.57 |
| GAGTAAAAATTAAAATGTACATATTATATATATTTA [XGTACX_site1319] | 7.64 ± 0.3 |
| AAATCCTTATTTTTTTGTACGTAATATTTTATATGG [XGTACX_site1530] | 7.95 ± 0.38 |
| ATGAATGTCCCAAGATGTACAATTATATATAACACA [XGTACX_site4702] | 7.82 ± 0.4 |
| TTTTAAGATATAAATTAATACTTATATATATAGATA [CACACA_negctrl_site22] | 7.24 ± 0.42 |
| TAATAAATAAGACACACACACATATATATATATTAT [CACACA_site1389] | 7.92 ± 0.35 |
